The campaign covered roughly 310,000 compounds. About 2,200 (0.71%) showed an effect of 50% or more. Effects have a minus sign here. The list shows a part of the results.

From paper PMC4336329 (PLoS ONE, 2015) come the findings set out here.

human ether-à-go-go-related gene (hERG) potassium channel, sequence (Q12809 whole entry, looked up): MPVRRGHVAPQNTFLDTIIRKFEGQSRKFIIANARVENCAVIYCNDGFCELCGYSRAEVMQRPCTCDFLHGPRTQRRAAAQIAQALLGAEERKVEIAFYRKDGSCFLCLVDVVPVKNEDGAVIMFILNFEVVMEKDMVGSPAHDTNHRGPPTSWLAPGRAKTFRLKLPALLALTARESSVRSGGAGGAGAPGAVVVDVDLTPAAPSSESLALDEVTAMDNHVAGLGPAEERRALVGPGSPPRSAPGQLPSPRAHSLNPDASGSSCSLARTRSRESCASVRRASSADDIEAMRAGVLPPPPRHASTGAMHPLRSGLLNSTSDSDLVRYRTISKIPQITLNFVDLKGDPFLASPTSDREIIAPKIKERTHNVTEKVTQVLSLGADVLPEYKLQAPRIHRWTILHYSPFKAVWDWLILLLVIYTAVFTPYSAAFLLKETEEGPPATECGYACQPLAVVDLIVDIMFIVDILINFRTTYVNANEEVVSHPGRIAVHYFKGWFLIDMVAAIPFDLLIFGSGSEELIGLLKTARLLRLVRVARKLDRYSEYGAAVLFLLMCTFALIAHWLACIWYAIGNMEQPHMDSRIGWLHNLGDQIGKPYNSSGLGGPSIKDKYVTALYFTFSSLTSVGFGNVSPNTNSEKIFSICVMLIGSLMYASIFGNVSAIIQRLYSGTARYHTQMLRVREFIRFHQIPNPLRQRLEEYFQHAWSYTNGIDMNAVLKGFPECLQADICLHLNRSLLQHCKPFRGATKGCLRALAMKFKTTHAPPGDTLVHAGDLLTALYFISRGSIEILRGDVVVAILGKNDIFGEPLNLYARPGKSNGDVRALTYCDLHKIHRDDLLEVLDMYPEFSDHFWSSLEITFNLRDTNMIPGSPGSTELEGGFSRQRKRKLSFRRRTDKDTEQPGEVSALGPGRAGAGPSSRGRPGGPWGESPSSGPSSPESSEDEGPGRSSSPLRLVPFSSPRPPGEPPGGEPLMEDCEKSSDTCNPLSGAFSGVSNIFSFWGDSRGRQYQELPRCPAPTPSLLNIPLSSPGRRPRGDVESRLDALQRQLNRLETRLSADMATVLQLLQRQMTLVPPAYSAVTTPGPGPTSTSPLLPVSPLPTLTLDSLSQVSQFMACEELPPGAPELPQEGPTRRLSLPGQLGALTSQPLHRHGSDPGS

This assay has as its target human ether-à-go-go-related gene (hERG) potassium channel (human, UniProt Q12809). Put plainly: primary screen, population patch clamp on CHO cells stably expressing hERG.
For the compound `COc1ccc(/C=N/Nc2nc(C)cc(=O)[nH]2)cc1OC`, the “hERG current change (%, negative = inhibition) at 1uM” value is recorded as 15%. Turning to `CCn1c(CC(=O)Nc2ccccc2)nnc1SCC(=O)Nc1nncs1`, the “hERG current change (%, negative = inhibition) at 1uM” value was found to be 16.4%. With `O=C(c1ccc(-n2cccc2)cc1)N1CCCCC1` the figure was 8.08%; with `CSc1nnc(NC(=O)c2nc(S(=O)(=O)Cc3cccc(C)c3)ncc2Cl)s1`, 1.83%; with `O=C(CSc1ccc(-c2ccccn2)nn1)NCc1ccccc1`, 12.1%.

For `CC(C)N(C(=O)CSc1nnc(NC(=O)Cc2cccs2)s1)C(C)C`, the “hERG current change (%, negative = inhibition) at 1uM” value is recorded as 10.9%. The result for `CCOC(=O)CC(NC(=O)Cc1cccs1)c1ccccc1Cl` (stereo not shown) reads 14.3%; that for `CC1(C)C2CCC1(CS(=O)(=O)NCc1ccc(S(N)(=O)=O)cc1)C(=O)C2` (stereo not shown), 7.58%; that for `CCC(c1nnnn1Cc1ccco1)N(CCc1ccccc1)Cc1cc2cc(C)ccc2[nH]c1=O` (stereo not shown), 10.5%. In the case of `Cc1cccc(NC(=O)c2ccc(S(=O)(=O)NCc3cccnc3)cc2)c1`, the “hERG current change (%, negative = inhibition) at 1uM” value came to 13.6%. Take `Cc1ccnc(SCc2nc3ccccc3s2)n1`: the “hERG current change (%, negative = inhibition) at 1uM” value is recorded as 23%. Regarding `COc1cccc(-n2c(CNC(=O)OC(C)(C)C)n[nH]c2=S)c1`, the “hERG current change (%, negative = inhibition) at 1uM” value came out at 8.54%. For `O=C(O)C1C2C=CC(C2)C1C(=O)NCc1ccccn1` (stereo not shown), the “hERG current change (%, negative = inhibition) at 1uM” value is reported as 2.63%. On to `CCS(=O)(=O)N1CCN(c2cnn(-c3ccccc3)c(=O)c2Cl)CC1`, for which the “hERG current change (%, negative = inhibition) at 1uM” value is recorded as -5.02%.

As to `Cc1cc(=O)oc2cc(NC(=O)C(C)Oc3ccc(F)cc3)ccc12` (stereo not shown), the “hERG current change (%, negative = inhibition) at 1uM” value is reported as -8.54%. With `Cc1cc(C)c2c(=O)c3c(oc2c1)C(=O)N(CCO)C3c1cccc(O)c1` (stereo not shown) the figure was 13.8%; with `c1cncc(-c2nc3ccccn3c2Nc2ccc3c(c2)OCCO3)c1`, 4.02%; with `O=C(Nc1ccc(C(F)(F)F)cn1)Nc1cccs1`, 10.6%. With `S=C(NCCN1CCOCC1)NC1CCCCC1` the figure was 19.6%; with `O=S(=O)(c1ccc(Cl)cc1)n1ccc2cccnc21`, 6.14%; with `COc1ccc(C2=NOC(C(=O)N3CCN(c4ccccc4OC)CC3)C2)cc1` (stereo not shown), 12.2%. With `CC1Oc2ccccc2N(CC(=O)Nc2ccc3c(c2)OCO3)C1=O` (stereo not shown) the figure was 9.94%; with `CC1CC(=O)Nc2ccccc2N1S(=O)(=O)c1ccc(C#N)cc1` (stereo not shown), 13.3%; with `CCOCCN(C(=O)c1ccccc1Cl)c1cccc(C)c1C`, 9.3%.

On to `O=C(CCCn1c(=S)[nH]c2cc3c(cc2c1=O)OCO3)NCCc1ccccc1Cl`, for which the “hERG current change (%, negative = inhibition) at 1uM” value worked out at 4.66%.
